{"source": "PubChem BioAssay AID540267", "about": "(National Center for Advancing Translational Sciences (NCATS), 2011)", "note": "About 530 (0.16%) of roughly 340,000 compounds were called active. The shares of active, inactive and inconclusive entries below differ from those in the screen. Rule as the data show it: active = activity change below about -80%; inconclusive = between about -30% and that limit; inactive = weaker than that."}
{"assay": "Small Molecules that selectively kill Giardia lamblia: qHTS;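 also: parasites exposed to compound for two days anaerobically before the ATP read; % is scaled to controls: 0 for no effect and ±100 for the full control effect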", "conditions": "Giardia lamblia trophozoite viability; at 7.66 µM; hits give low values", "procedure,_shortened": "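Anaerobic 48 hrs incubation at 37 deg C of 100 trophozoites/well with test compounds; ATPLite 1-Step luminescence, 15-30 min RT, reports cellular ATP as viability.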"}
{"compound": "CCCCCCCC(=O)OC(CN1CCCCC1)CN1CCCC1=O", "note": "(stereo not given)", "activity change": "inconclusive: -33.9% [inhibitor]"}
{"compound": "Cc1cccnc1NC(=O)c1ccc(Cl)c(S(=O)(=O)N2CCCC2)c1", "activity change": "inconclusive: -32.3% [inhibitor]"}
{"compound": "CCC1CCCCN1CC(O)COCc1cccc(OC)c1", "note": "(stereo not given)", "activity change": "inconclusive: -33.1% [inhibitor]"}
{"compound": "C=CCn1c(C)cc(C(=O)COc2ccc(C)nc2[N+](=O)[O-])c1C", "activity change": "inconclusive: -73.4% [inhibitor]"}
{"compound": "Cc1ccc(S(=O)(=O)N2CCOCC2)cc1NC(=O)CSc1nnnn1C1CCCC1", "activity change": "inconclusive: -31.9% [inhibitor]"}
{"compound": "COc1ccc(NC(=S)N2CCN(C)CC2)cc1", "activity change": "inactive: -0.212%"}
{"compound": "Cc1ccccc1NC(=O)c1ccc([N+](=O)[O-])o1", "activity change": "inconclusive: -79.2% [inhibitor]"}
{"compound": "COc1cccc(NC(=O)CSc2ccc3nnc(CCNC(=O)c4ccccc4)n3n2)c1", "activity change": "inconclusive: -36.2% [inhibitor]"}
{"compound": "CSc1nc(-c2ccccc2)c(-c2ccccc2)[nH]1", "activity change": "inconclusive: -30.1% [inhibitor]"}
{"compound": "CC(=O)Nc1sc(NC(=O)c2ccco2)nc1-c1cccs1", "activity change": "inconclusive: -32.1% [inhibitor]"}
{"compound": "CC(C)(C)c1ccc(OCCCn2ccnc2)cc1", "activity change": "inconclusive: -31.7% [inhibitor]"}
{"compound": "CC(C)(C)c1ccc2c(c1)OC(C(=O)N/N=C/c1ccc([N+](=O)[O-])o1)CO2", "note": "(stereo not given)", "activity change": "active: -97.8%"}
{"compound": "S=C(NCCCN1CCOCC1)NC1CC1", "activity change": "inactive: -9.65%"}
{"compound": "COc1ccc(CC(=O)NC(=S)Nc2ccc(S(=O)(=O)NC(C)(C)C)cc2)cc1", "activity change": "inactive: -11.2%"}
{"compound": "Cc1nn(-c2ccccc2)c(C)c1/C=N/n1c(-c2ccc(Cl)cc2)n[nH]c1=S", "activity change": "inactive: -11.6%"}
{"compound": "COc1cccc(/C=N/Nc2ncnc3c2[nH]c2ccc(C)cc23)c1OC", "activity change": "inconclusive: -35.3% [inhibitor]"}
{"compound": "CC1(C)CC(=O)C2=C(C1)OC(N)=C(C#N)C2C1CC=CCC1", "note": "(stereo not given)", "activity change": "inactive: -14.4%"}
{"compound": "Cc1ccc(-n2c(SCC(=O)Nc3cccc(S(=O)(=O)NC4=NCCCCC4)c3)nc3ccccc3c2=O)cc1C", "activity change": "inactive: -8.14%"}
{"compound": "O=C(N/N=C\\c1cn(-c2ccccc2)nc1-c1ccccc1)c1ccc(Br)o1", "activity change": "inconclusive: -30.4% [inhibitor]"}
{"compound": "CCOC(=O)c1c(S(=O)(=O)Nc2ccc(C)c(F)c2)c(C)n(C)c1C", "activity change": "inconclusive: -35.1% [inhibitor]"}
{"compound": "COc1ccc(S(=O)(=O)Nc2ccc(C)cc2)cc1OC", "activity change": "inactive: 11.9%"}
{"compound": "Fc1cccc(F)c1/C=N/Nc1ccccn1", "activity change": "inactive: 4.26%"}
{"compound": "Cc1c(C(=O)N2CCC3(CC2)CC(=O)c2ccccc2O3)cccc1[N+](=O)[O-]", "activity change": "inconclusive: -31.4% [inhibitor]"}
{"compound": "COc1ccccc1CNC(=O)c1ccc(CS(=O)(=O)c2ccccc2C)o1", "activity change": "inconclusive: -35.7% [inhibitor]"}
{"compound": "COc1ccc(N2C(S)=C(C#N)C(=O)NC2c2ccco2)cc1", "note": "(stereo not given)", "activity change": "inactive: 48.2%"}
{"compound": "COc1ccccc1-c1cc(C(F)(F)F)c(C#N)c(=O)[nH]1", "activity change": "inactive: 6.92%"}
{"compound": "CC1CCN(C2=C(NS(=O)(=O)c3ccc(Br)cc3)C(=O)c3ccccc3C2=O)CC1", "activity change": "inconclusive: -30.8% [inhibitor]"}
{"compound": "CCn1cc(S(=O)(=O)NCCc2ccc(F)cc2)cn1", "activity change": "inconclusive: -37.1% [inhibitor]"}
{"compound": "COc1ccc(CCN(C)C(=O)C2CCN(C(=O)Nc3ccccc3)CC2)cc1OC", "activity change": "inconclusive: -37.5% [inhibitor]"}
{"compound": "CCCSc1nc2c(cnn2-c2ccc(C)c(C)c2)c(=O)[nH]1", "activity change": "inconclusive: -53.3% [inhibitor]"}
{"compound": "NC(N)=N/N=C/c1ccc(Br)cc1", "activity change": "inconclusive: -44.5% [inhibitor]"}
{"compound": "CC(C)OC(=O)c1ccc(N2CCN(c3ccccc3F)CC2)nc1", "activity change": "inactive: 2.96%"}
{"compound": "CCCc1cc(=O)[nH]c(SCC(=O)Nc2cc(C)on2)n1", "activity change": "inconclusive: -35.9% [inhibitor]"}
{"compound": "Cc1ccn(-c2n[nH]c(C)c2[N+](=O)[O-])n1", "activity change": "inactive: -7.6%"}
{"compound": "COc1cc(C(=O)NNC(=S)NC(=O)/C=C/c2ccccc2)cc(OC)c1OC", "activity change": "inactive: -3.64%"}
{"compound": "Cc1occc1C(=O)Nc1ccc(OCc2ccccc2)cc1", "activity change": "inactive: -5.38%"}
{"compound": "COCCCC1CCN(C(=O)C2CCC(=O)N(Cc3cccc(F)c3)C2)CC1", "note": "(stereo not given)", "activity change": "inconclusive: -35.1% [inhibitor]"}
{"compound": "CN(C(=O)c1cccc(NC(=O)Cc2ccc(NC(=O)C3CCN(C(=O)C4CCCCC4)CC3)cc2)c1)C1CCCC1", "activity change": "inactive: 1.48%"}
{"compound": "Cc1ccc(S(=O)(=O)Nc2ccc(C(OC(=O)c3ccccc3[N+](=O)[O-])(C(F)(F)F)C(F)(F)F)cc2)cc1", "activity change": "inconclusive: -54.5% [inhibitor]"}
{"compound": "COc1ccc(C2CC(c3cccc(C)c3)n3nc(N)nc3N2)cc1", "note": "(stereo not given)", "activity change": "inactive: 15.5%"}
{"compound": "CC1CCCN(C(=O)C2CCN(S(=O)(=O)c3ccccc3)CC2)C1", "note": "(stereo not given)", "activity change": "inactive: 6.93%"}
{"compound": "COC(=O)Cn1cnc2c(oc3ccccc32)c1=O", "activity change": "inconclusive: -39.8% [inhibitor]"}
{"compound": "CC12CCC(=O)N1C(C(=O)NNC(=O)c1ccccc1F)CS2", "note": "(stereo not given)", "activity change": "inconclusive: -38% [inhibitor]"}
{"compound": "COC(=O)c1sc(NC(=O)c2ccc(OC)cc2OC)nc1C", "activity change": "inconclusive: -75.4% [inhibitor]"}
{"compound": "CCC(CC)N1CCN(CC2CC=CCC2)CC1", "note": "(stereo not given)", "activity change": "inconclusive: -31.9% [inhibitor]"}
{"compound": "COc1cccc(OC)c1C(=O)Nc1cccc(-c2ccc(N3CCOCC3)nn2)c1", "activity change": "inconclusive: -49% [inhibitor]"}
{"compound": "COc1ccc(Oc2c(-c3ccc(O)cc3O)n[nH]c2C)cc1", "activity change": "inactive: 0.106%"}
{"compound": "CC(C)(C#CC(O)(c1ccccc1)c1ccccc1)N1CCCCC1", "activity change": "inconclusive: -32.1% [inhibitor]"}
{"compound": "Cc1ccc2c(c1)cc1c(=O)n(CC(=O)N3CCCC3)nc(C)n12", "activity change": "inactive: -12.4%"}
{"compound": "CCc1c(C)nc(N)nc1Cl", "activity change": "inconclusive: -32.2% [inhibitor]"}
{"compound": "CCOc1cc(C(=O)OCC(=O)c2c(C)[nH]c3ccccc23)ccc1OCC(=O)N1CCOCC1", "activity change": "inactive: 3.21%"}
{"compound": "CC(C(=O)N1CCCCC1)N1C(=O)c2ccccc2C1=O", "note": "(stereo not given)", "activity change": "inconclusive: -35.9% [inhibitor]"}
{"compound": "CCN(CC)S(=O)(=O)c1ccc(Cl)c(NC(=O)COC(=O)C2CCCCC2)c1", "activity change": "inactive: -11.8%"}
{"compound": "COc1ccc(-c2noc(C3CCCN(C(=O)c4ccc(C)cc4)C3)n2)cc1", "note": "(stereo not given)", "activity change": "inconclusive: -35.5% [inhibitor]"}
{"compound": "Cn1c(CCNS(=O)(=O)c2ccccc2)nnc1SCc1cccnc1", "activity change": "inactive: -18.3%"}
{"compound": "CCn1c(C)cc(C(=O)COC(=O)c2ccccc2[N+](=O)[O-])c1C", "activity change": "inconclusive: -65.5% [inhibitor]"}
{"compound": "O=C(CN1CCN(C(=O)C2CCCO2)CC1)Nc1cc(C(F)(F)F)ccc1Cl", "note": "(stereo not given)", "activity change": "inactive: 27.1%"}
{"compound": "COc1cccc(/C=C2\\SC(=O)N(CC(=O)NC3C=CS(=O)(=O)C3)C2=O)c1", "note": "(stereo not given)", "activity change": "inactive: -10.6%"}
{"compound": "O=C(/C=C/c1cccs1)c1ccc(N2CCOCC2)cc1", "activity change": "inconclusive: -70.8% [inhibitor]"}
{"compound": "CCC1(CC)CNC(=O)NC1=O", "activity change": "inconclusive: -33.3% [inhibitor]"}
{"compound": "Cc1cc(C(=O)Nc2cc(C)n(Cc3ccc(Cl)cc3)n2)no1", "activity change": "inactive: 9.51%"}
{"compound": "O=C(COC(=O)c1cccnc1)Nc1cccc2ccccc12", "activity change": "inconclusive: -34.2% [inhibitor]"}
{"compound": "Cc1ccccc1-n1ncc2c1CC(C)(C)CC2NC(=O)CSc1ccncc1", "note": "(stereo not given)", "activity change": "inactive: 0.0689%"}
{"compound": "Cc1cccc(N2CCN(C(=O)CC(NC(=O)c3ccccc3)c3ccccc3)CC2C)c1", "note": "(stereo not given)", "activity change": "inactive: -15.4%"}
{"compound": "COc1ccc(-c2cc(C(=O)N3CCCC3)no2)cc1", "activity change": "inconclusive: -31.3% [inhibitor]"}
{"compound": "CC1S/C(=C(\\C#N)C(N)=O)N(c2ccc(F)cc2)C1=O", "note": "(stereo not given)", "activity change": "inconclusive: -46% [inhibitor]"}
{"compound": "CCCC(C)C(=O)Nc1ccc(S(N)(=O)=O)cc1", "note": "(stereo not given)", "activity change": "inconclusive: -34.6% [inhibitor]"}
{"compound": "C#CCOCCOCCOCCNc1nc(N2CCN(C(=O)[C@H](CCC(=O)O)n3cc([C@@H](N)CC(N)=O)nn3)CC2)nc(N2CCN(C(=O)[C@H](CCC(=O)O)n3cc([C@@H](N)CC(N)=O)nn3)CC2)n1", "activity change": "inconclusive: -46.3% [inhibitor]"}
{"compound": "O=C(Nc1ccc(Cl)cc1)Nc1ccccc1C(=O)O", "activity change": "inconclusive: -33.6% [inhibitor]"}
{"compound": "Cc1cccc(N2CCN(C(=O)c3cc(C)oc3C)CC2C)c1", "note": "(stereo not given)", "activity change": "inactive: -9.31%"}
{"compound": "CON=C(C(=O)NC1C(=O)N2C(C(=O)O)=C(CSc3nc(=O)c(=O)[nH]n3C)CSC12)c1csc(N)n1", "note": "(stereo not given)", "activity change": "inactive: -6.44%"}
{"compound": "COc1ccc(Nc2nccc(-c3cccc(N)c3)n2)cc1", "activity change": "inconclusive: -33.4% [inhibitor]"}
{"compound": "CC(C)Oc1ccc(C(=O)Nc2nnc(SCC(=O)N3CCOCC3)s2)cc1", "activity change": "active: -95.4%"}
{"compound": "CCCCCCCCNS(=O)(=O)CCNCc1ccc(OC)cc1", "activity change": "inactive: 5.63%"}
{"compound": "CN(CC(=O)Nc1cccc(F)c1)C(=O)c1ccc(N2CCCCC2)c([N+](=O)[O-])c1", "activity change": "inactive: -23.6%"}
{"compound": "Cc1ccc(-n2cccc2/C=C2\\C(=N)N3N=C(c4ccco4)SC3=NC2=O)cc1", "activity change": "inconclusive: -34.9% [inhibitor]"}
{"compound": "CCOC(=O)c1c(C)oc2c1C(=O)c1ccccc1C2=O", "activity change": "active: -81.4%"}
{"compound": "Cc1cccc(NC2=C(Cl)C(=O)OC2OC(=O)c2ccco2)c1", "note": "(stereo not given)", "activity change": "inactive: 15%"}
{"compound": "CCC(C)c1ccc(NC(=O)c2cccs2)cc1", "note": "(stereo not given)", "activity change": "inconclusive: -31.2% [inhibitor]"}
{"compound": "CCN(CC)S(=O)(=O)c1ccc(N2CCCC2)c(NS(=O)(=O)c2cccs2)c1", "activity change": "inconclusive: -37.6% [inhibitor]"}
